For the experiment, the system named is NCI-H322M lung. The experiment in a line: growth of human tumour cells (NCI), 48 h.

SMILES strings stand for the structures.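 A five-concentration, 48-hour dose response in 96-well plates underlies each endpoint, interpolated linearly between surrounding concentrations. GI50: concentration for 50% inhibition of growth. TGI marks complete inhibition of growth.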

For `C=C1CCC2C3(C)COC(c4cccc(F)c4)OC3CCC2(C)C1C/C=C1/C(=O)OCC1O` (centres undefined), the GI50 is 10.9 µM and the TGI was determined as 22.9 µM.

For the compound `CCCCNC(=S)Nc1ccc(OCc2nc3ccc(Cl)cc3[nH]2)cc1`, the GI50 was 10.4 µM and the TGI was 22.2 µM.

These data come from PubChem BioAssay (NCI).
